Over roughly 81,000 sequences, “one-hybrid fitness for binding NBS DNA” has its median near -0.1; the highest 2% begin near 0.36. This is one part of the list.
B1: Caulobacter ParB omega fusion; a variant is named by its letters at X, in order, B8GW30 (parent)
chain: MESVVVGEPGMSEGRRGLGRGLSALLGEVDAAPAQAPGEQLGGSREAPIEILQRNPDQPRRTFREEDLEDLSNSIREKGVLQPILVRPSPDTAGEYQIVAGERAWRAAQRAGLKTVPIMVRELDDLAVLEIGIIENVQRADLNVLEEALSYKVLMEKFERTQENIAQTIGKSXSHVANXMRLLXLPDEVQSYLVSGELTAXHARAIAAAADPVALAKQIIEGGLSVRETEALARKAPNLSAGKSKGGRPPRVKDTDTQALESDLSSVLGLDVSIDHRGSTGTLTITYATLEQLDDLCNRLTRGI

Variants of: B1
Assay: one-hybrid fitness for binding NBS DNA (the Noc-binding site; scaled: cognate 1, non-cognate 0); higher = stronger binding
Conditions: with NBS DNA site
In short: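 Values were rescaled so that cognate is 1 and non-cognate is 0. Each is a fitness, the log change in a variant's read ratio to wild type from Illumina reads of plasmids before and after selection, with three replicate libraries pooled and variants under 10 reads dropped. Selection of the Caulobacter ParB libraries, four specificity codons randomised, used E. coli USO with a HIS3 reporter, site 19 bp from the promoter, on M9-minus-histidine with 0.1 mM IPTG and 5 mM 3-AT for 48 hours at 37°C.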

| Variant | one-hybrid fitness for binding NBS DNA |
| --- | --- |
| YRTT | ≤ 0.2 |
| RHYV | ≤ 0.2 |
| TWKG | ≤ 0.2 |
| VIMR | ≤ 0.2 |
| SKQL | ≤ 0.2 |
| SSCA | ≤ 0.2 |
| NRGL | ≤ 0.2 |
| FHHG | ≤ 0.2 |
| IINM | ≤ 0.2 |
| LSLM | ≤ 0.2 |
| TLFG | ≤ 0.2 |
| NHLV | ≤ 0.2 |
| PFES | ≤ 0.2 |
| GVIG | ≤ 0.2 |
| RGSL | ≤ 0.2 |
| AMMS | ≤ 0.2 |
| CVGS | ≤ 0.2 |
| VQPA | ≤ 0.2 |
| YLFS | ≤ 0.2 |
| DLIL | ≤ 0.2 |
| YMAV | ≤ 0.2 |
| NCID | ≤ 0.2 |
| VFLD | ≤ 0.2 |
| NSTM | ≤ 0.2 |

| Variant | one-hybrid fitness for binding NBS DNA |
| --- | --- |
| PVQT | ≤ 0.2 |
| ENDC | ≤ 0.2 |
| HSPR | ≤ 0.2 |
| WPFI | ≤ 0.2 |
| NAIF | ≤ 0.2 |
| QPSH | ≤ 0.2 |
| WSRT | ≤ 0.2 |
| EGNG | ≤ 0.2 |
| SFPW | ≤ 0.2 |
| SENG | ≤ 0.2 |
| YIYS | ≤ 0.2 |
| AFVQ | ≤ 0.2 |
| CQKM | ≤ 0.2 |
| HDMV | ≤ 0.2 |
| CCSC | ≤ 0.2 |
| NSSI | ≤ 0.2 |
| QKAN | ≤ 0.2 |
| RTHG | ≤ 0.2 |
| QHLL | ≤ 0.2 |
| DTKS | ≤ 0.2 |
| AYMA | ≤ 0.2 |
| HIPH | ≤ 0.2 |
| DVMC | ≤ 0.2 |
| ALPN | ≤ 0.2 |

| Variant | one-hybrid fitness for binding NBS DNA |
| --- | --- |
| SRWI | ≤ 0.2 |
| WHCC | ≤ 0.2 |
| QIFK | ≤ 0.2 |
| DKVI | ≤ 0.2 |
| YDAG | ≤ 0.2 |
| VHDG | ≤ 0.2 |
| NLPI | ≤ 0.2 |
| NWTS | ≤ 0.2 |
| SPEF | ≤ 0.2 |
| WCKL | ≤ 0.2 |
| TFRG | ≤ 0.2 |
| SWRF | ≤ 0.2 |
| PHRM | ≤ 0.2 |
| QLRA | 0.479 |
| LDSC | ≤ 0.2 |
| HLCT | ≤ 0.2 |
| TQRW | ≤ 0.2 |
| PNPF | ≤ 0.2 |
| MGDT | ≤ 0.2 |
| FGKN | ≤ 0.2 |
| VSNF | ≤ 0.2 |
| WHKG | ≤ 0.2 |
| TCGC | ≤ 0.2 |
| NSNC | ≤ 0.2 |

| Variant | one-hybrid fitness for binding NBS DNA |
| --- | --- |
| THMA | ≤ 0.2 |
| TPLG | ≤ 0.2 |
| PIVL | ≤ 0.2 |
| WGST | ≤ 0.2 |
| VTTN | ≤ 0.2 |
| LSHV | ≤ 0.2 |
| YDGR | ≤ 0.2 |
| LPCE | ≤ 0.2 |
| QGET | ≤ 0.2 |
| ITKC | ≤ 0.2 |
| DVYR | ≤ 0.2 |
| RQYD | ≤ 0.2 |
| SHDS | ≤ 0.2 |
| RIRA | 0.304 |
| HDSK | ≤ 0.2 |
| ARTS | ≤ 0.2 |
| VERI | ≤ 0.2 |
| SSAD | ≤ 0.2 |
| VRAL | ≤ 0.2 |
| VVVR | ≤ 0.2 |
| MFCR | ≤ 0.2 |
| KRGA | 0.227 |
| AKNR | ≤ 0.2 |
| HADC | ≤ 0.2 |

| Variant | one-hybrid fitness for binding NBS DNA |
| --- | --- |
| IIRT | ≤ 0.2 |
| WDCS | ≤ 0.2 |
| TLHW | ≤ 0.2 |
| GYKK | ≤ 0.2 |
| IWSY | ≤ 0.2 |
| AVLV | ≤ 0.2 |
| QYCG | ≤ 0.2 |
| PYNR | ≤ 0.2 |
| EITS | ≤ 0.2 |
| DMST | ≤ 0.2 |
| AEWC | ≤ 0.2 |
| GWWR | ≤ 0.2 |
| QLHK | ≤ 0.2 |
| QKWM | ≤ 0.2 |
| QQMD | ≤ 0.2 |
| MKRS | ≤ 0.2 |
| SKAF | ≤ 0.2 |
| WGPQ | ≤ 0.2 |
| KVTS | ≤ 0.2 |
| MTNG | ≤ 0.2 |
| AMEG | ≤ 0.2 |
| KLCI | ≤ 0.2 |
| QYPL | ≤ 0.2 |
| HLIG | ≤ 0.2 |

| Variant | one-hybrid fitness for binding NBS DNA |
| --- | --- |
| EYNC | ≤ 0.2 |
| RMHR | 0.503 |
| TIED | ≤ 0.2 |
| EQFG | ≤ 0.2 |
| RCHK | ≤ 0.2 |
| RNCF | ≤ 0.2 |
| PVQM | ≤ 0.2 |
| YYLP | ≤ 0.2 |
| VGLT | ≤ 0.2 |
| VHLV | ≤ 0.2 |
| VNMR | ≤ 0.2 |
| PDAH | ≤ 0.2 |
| LTAS | ≤ 0.2 |
| RCQP | ≤ 0.2 |
| MADG | ≤ 0.2 |
| KLTT | ≤ 0.2 |
| RCMS | 0.412 |
| NIIR | ≤ 0.2 |
| VVNH | ≤ 0.2 |
| LGHR | ≤ 0.2 |
| TWMK | ≤ 0.2 |
| KLKH | ≤ 0.2 |
| PCLR | ≤ 0.2 |
| RLRQ | ≤ 0.2 |

| Variant | one-hybrid fitness for binding NBS DNA |
| --- | --- |
| QNNT | 0.201 |
| NPHA | ≤ 0.2 |
| AHCR | ≤ 0.2 |
| RYCQ | ≤ 0.2 |
| AARH | ≤ 0.2 |
| EDVW | ≤ 0.2 |
| NTHQ | ≤ 0.2 |
| RSEG | ≤ 0.2 |
| AMKF | ≤ 0.2 |
| AKNC | ≤ 0.2 |
| MHSR | ≤ 0.2 |
| AKED | ≤ 0.2 |
| IQSH | ≤ 0.2 |
| RWKH | ≤ 0.2 |
| IRKD | ≤ 0.2 |
| ASTP | ≤ 0.2 |
| PDNY | ≤ 0.2 |
| RHDF | ≤ 0.2 |
| DHSA | ≤ 0.2 |
| YDLF | ≤ 0.2 |
| IVRA | ≤ 0.2 |
| PRSQ | ≤ 0.2 |
| SRQT | ≤ 0.2 |
| ITNR | ≤ 0.2 |

| Variant | one-hybrid fitness for binding NBS DNA |
| --- | --- |
| KWFS | ≤ 0.2 |
| AAQM | ≤ 0.2 |
| MTGD | ≤ 0.2 |
| QYEA | ≤ 0.2 |
| ALSE | ≤ 0.2 |
| VVID | ≤ 0.2 |
| NGTK | ≤ 0.2 |
| PQLN | ≤ 0.2 |
| TLLF | ≤ 0.2 |
| EKSI | ≤ 0.2 |
| RFKW | ≤ 0.2 |
| CKDV | ≤ 0.2 |
| DFRK | ≤ 0.2 |
| TWLL | ≤ 0.2 |
| SLSF | ≤ 0.2 |
| RVRG | ≤ 0.2 |
| TNYR | ≤ 0.2 |
| AYRQ | ≤ 0.2 |
| YCSH | ≤ 0.2 |
| SWEM | ≤ 0.2 |
| PPHF | ≤ 0.2 |
| YHGS | ≤ 0.2 |
| KCKL | ≤ 0.2 |
| NTAQ | ≤ 0.2 |

| Variant | one-hybrid fitness for binding NBS DNA |
| --- | --- |
| SFIS | ≤ 0.2 |
| VPQE | ≤ 0.2 |
| VNYR | ≤ 0.2 |
| YEQD | ≤ 0.2 |
| IYSR | ≤ 0.2 |
| SPRN | ≤ 0.2 |
| QPCF | ≤ 0.2 |
| GYGG | ≤ 0.2 |
| FCLR | ≤ 0.2 |
| PFHA | ≤ 0.2 |
| GEPN | ≤ 0.2 |
| QAQN | ≤ 0.2 |
| RMSG | ≤ 0.2 |
| WDVM | ≤ 0.2 |
| SHNM | ≤ 0.2 |
| GHDR | ≤ 0.2 |
| NNFI | ≤ 0.2 |
| RKDM | ≤ 0.2 |
| AKWF | ≤ 0.2 |
| WHYS | ≤ 0.2 |
| VFSA | ≤ 0.2 |
| IHGC | ≤ 0.2 |
| HTFR | ≤ 0.2 |
| CVNF | ≤ 0.2 |

| Variant | one-hybrid fitness for binding NBS DNA |
| --- | --- |
| NFYC | ≤ 0.2 |
| WHMS | ≤ 0.2 |
| PTIM | ≤ 0.2 |
| VWPG | ≤ 0.2 |
| EHDE | ≤ 0.2 |
| KMVV | ≤ 0.2 |
| CLRI | ≤ 0.2 |
| CLYA | ≤ 0.2 |
| ATEL | ≤ 0.2 |
| YSVS | ≤ 0.2 |
| PAKF | ≤ 0.2 |
| QIGG | ≤ 0.2 |
| HRKT | 0.332 |
| LGSS | ≤ 0.2 |
| PCAI | ≤ 0.2 |
| PPVP | ≤ 0.2 |
| RELV | ≤ 0.2 |
| QVIW | ≤ 0.2 |
| TLHC | ≤ 0.2 |
| RKET | 0.528 |
| NSNP | ≤ 0.2 |
| RTFK | ≤ 0.2 |
| ISQG | ≤ 0.2 |
| TSFR | ≤ 0.2 |

| Variant | one-hybrid fitness for binding NBS DNA |
| --- | --- |
| EDPR | ≤ 0.2 |
| HQTA | ≤ 0.2 |
| FHTM | ≤ 0.2 |
| WSAC | ≤ 0.2 |
| STTT | ≤ 0.2 |
| MFKY | ≤ 0.2 |
| GAVG | ≤ 0.2 |
| PLPW | ≤ 0.2 |
| TESG | ≤ 0.2 |
| HWAI | ≤ 0.2 |
| AKAC | ≤ 0.2 |
| TPQG | ≤ 0.2 |
| KPVF | ≤ 0.2 |
| PHFH | ≤ 0.2 |
| GITY | ≤ 0.2 |
| VHPY | ≤ 0.2 |
| QCSG | ≤ 0.2 |
| IMLI | ≤ 0.2 |
| SYKC | ≤ 0.2 |
| IPDS | ≤ 0.2 |
| WTRA | ≤ 0.2 |
| APAG | ≤ 0.2 |
| YTQY | ≤ 0.2 |
| AKRC | ≤ 0.2 |

| Variant | one-hybrid fitness for binding NBS DNA |
| --- | --- |
| TIGR | ≤ 0.2 |
| NFSY | ≤ 0.2 |
| IMAY | ≤ 0.2 |
| TGPE | ≤ 0.2 |
| FYMS | ≤ 0.2 |
| QGPW | ≤ 0.2 |
| TLRA | ≤ 0.2 |
| QMWV | ≤ 0.2 |
| TCLP | ≤ 0.2 |
| EMQG | ≤ 0.2 |
| DNRH | ≤ 0.2 |
| RGLC | ≤ 0.2 |
| MTCS | ≤ 0.2 |
| AGRF | ≤ 0.2 |
| LAYQ | ≤ 0.2 |
| SPVK | ≤ 0.2 |
| RSTP | ≤ 0.2 |
| QTVM | ≤ 0.2 |
| YCIR | ≤ 0.2 |
| NAES | ≤ 0.2 |
| QDRT | ≤ 0.2 |
| AMAY | ≤ 0.2 |
| AKAE | ≤ 0.2 |
| ACAN | ≤ 0.2 |

| Variant | one-hybrid fitness for binding NBS DNA |
| --- | --- |
| INVL | ≤ 0.2 |
| PRFS | ≤ 0.2 |
| KLYH | ≤ 0.2 |
| DESA | ≤ 0.2 |
| KKAT | 0.309 |
| KDMR | ≤ 0.2 |
| PVHF | ≤ 0.2 |
| TNEM | ≤ 0.2 |
| AQRC | ≤ 0.2 |
| CCDC | ≤ 0.2 |
| ICLM | ≤ 0.2 |
| MCCT | ≤ 0.2 |
| GTQL | ≤ 0.2 |
| YTPK | ≤ 0.2 |
| RDLK | ≤ 0.2 |
| IRHG | ≤ 0.2 |
| GRCE | ≤ 0.2 |
| LRRQ | ≤ 0.2 |

Source: a collection of fitness landscapes (doi:10.1016/j.celrep.2020.107928)
